Results published in paper PMC3153576.

Test system: H4FL, fluorescein-labeled H4(1-20) peptide, unmethylated Arg-3
Assay: stopped-flow fluorescence
Settings: other: stopped-flow fluorescence

## Recombinant His-tagged rat PRMT1 (sequence not shown)
  kobs of association at 2 μM PRMT1: 469 ± 10 s^−1 at 2 μM PRMT1
